Laboratory results as given in paper PMC4336329 (PLoS ONE, 2015).
About 14,000 (4.5%) of roughly 310,000 compounds showed an effect of 50% or more. The effect is printed as a negative number. This is one part of the list.

molecular target: human ether-à-go-go-related gene (hERG) potassium channel (human, UniProt Q12809); assay: primary screen, population patch clamp on CHO cells stably expressing hERG
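Further: peak tail current of the secondary pulse compared with the same well before compound.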

Chain of human ether-à-go-go-related gene (hERG) potassium channel (Q12809 whole entry, looked up): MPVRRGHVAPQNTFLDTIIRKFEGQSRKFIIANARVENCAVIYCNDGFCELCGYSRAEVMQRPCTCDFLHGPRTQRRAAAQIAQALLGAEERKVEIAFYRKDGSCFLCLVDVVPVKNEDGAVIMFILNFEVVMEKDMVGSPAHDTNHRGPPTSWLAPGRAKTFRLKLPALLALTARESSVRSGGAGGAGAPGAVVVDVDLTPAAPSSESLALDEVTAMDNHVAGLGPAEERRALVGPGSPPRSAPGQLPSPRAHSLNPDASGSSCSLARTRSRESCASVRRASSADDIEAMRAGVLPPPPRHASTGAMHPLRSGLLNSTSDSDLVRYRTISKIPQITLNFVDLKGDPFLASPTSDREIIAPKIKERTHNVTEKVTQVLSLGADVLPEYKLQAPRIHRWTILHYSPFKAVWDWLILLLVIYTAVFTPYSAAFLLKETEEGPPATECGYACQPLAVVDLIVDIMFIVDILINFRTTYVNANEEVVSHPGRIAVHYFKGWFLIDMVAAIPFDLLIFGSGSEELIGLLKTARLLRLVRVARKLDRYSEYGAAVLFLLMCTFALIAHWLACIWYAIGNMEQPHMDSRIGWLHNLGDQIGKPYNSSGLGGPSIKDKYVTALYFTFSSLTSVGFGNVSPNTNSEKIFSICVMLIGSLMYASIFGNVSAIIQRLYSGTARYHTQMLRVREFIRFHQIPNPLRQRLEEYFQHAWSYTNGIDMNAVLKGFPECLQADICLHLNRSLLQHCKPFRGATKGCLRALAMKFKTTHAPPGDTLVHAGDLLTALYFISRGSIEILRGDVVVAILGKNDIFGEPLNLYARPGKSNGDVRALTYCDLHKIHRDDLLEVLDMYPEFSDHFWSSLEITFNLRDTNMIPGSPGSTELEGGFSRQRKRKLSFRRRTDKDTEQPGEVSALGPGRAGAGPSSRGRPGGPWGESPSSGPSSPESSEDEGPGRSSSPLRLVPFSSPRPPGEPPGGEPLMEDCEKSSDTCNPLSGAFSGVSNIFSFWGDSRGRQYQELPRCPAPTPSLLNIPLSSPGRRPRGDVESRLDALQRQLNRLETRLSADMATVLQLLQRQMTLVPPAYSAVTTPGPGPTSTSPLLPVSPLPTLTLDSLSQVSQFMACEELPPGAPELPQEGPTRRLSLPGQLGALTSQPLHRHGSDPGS

Row | SMILES | hERG current change (%, negative = inhibition) at 10uM [%]
1 | O=C(Cc1ccccc1)Nc1ccc(SC(F)F)cc1 | -29.7
2 | S=c1[nH]ncn2c1cc1oc3ccccc3c12 | 15.9
3 | Cc1cccc(-n2ccnc2CN2CCN(C(C)C)C(CCO)C2)c1 (centres unmarked) | -12.3
4 | COc1cnc(-c2ccccc2)nc1Oc1ccc(C(C)(C)C)cc1 | -10.2
5 | O=C(CS(=O)CC(=O)N(CC(=O)NC1CCCC1)C1CCCC1)Nc1ccc(F)cc1 (centres unmarked) | 9.61
6 | Cc1cc(=O)n(CCO)c(O)c1C#N | 3.44
7 | CCOc1cc(/C=N/NC(=O)C2CC2)ccc1OC(C)C | 15.9
8 | O=C(CCS(=O)(=O)Cc1ccccc1F)NCCCN1CCCCC1 | 8.31
9 | Fc1ccc(-c2ccc(NCCN3CCOCC3)nn2)cc1 | -21.2
10 | CCOC(=O)c1csc(NC(=O)c2ccc(OCC)cc2)n1 | -14.9
11 | CCOCC(O)CS(=O)(=O)c1ccccn1 (centres unmarked) | 11.9
12 | COc1ccc2c(c1)SCC/C2=C\CN1C(=O)CCC1=O | 1.89
13 | CC(C)(C)NC(=O)CSc1nc(N)cc(=O)[nH]1 | 21.8
14 | Cn1cccc1C(=O)NCC(c1ccc(F)cc1)N1CCOCC1 (centres unmarked) | -5.3
15 | COC1CCN(Cc2c(C(=O)N3CCc4ccccc4C3)nc3ccc(Cl)cn23)CC1 | -29.4
16 | Cc1ccnc(NS(=O)(=O)c2ccc(NC(=O)c3cc(-c4ccc(Br)cc4)nc4ccccc34)cc2)n1 | 12.5
17 | COc1cccc(NC(=O)c2ccc(NC(=O)C3CC(=O)OC34CCCCC4)cc2)c1 (centres unmarked) | 5.57
18 | O=C1Nc2ccc(S(=O)(=O)N(CCO)CCO)c3cccc1c23 | 6.96
19 | COc1ccccc1C(=O)NCCC(=O)N1CCCC(C)C1 (centres unmarked) | 18
20 | CC1Cc2nc(SCC(=O)NCC3CCCO3)n(C)c(=O)c2S1 (centres unmarked) | 11.4
21 | C=CCNC(=S)NNC(=O)C(CC(C)C)CC(C)O (centres unmarked) | 12.5
22 | COc1ccc(CNC2CC(=O)N(C)C2=O)cc1 (centres unmarked) | 13.6
23 | N#Cc1nc(-c2cccc3ccccc23)oc1N | 5.28
24 | O=C(OCCN1CCCC1=O)c1cc(F)c(F)c(F)c1F | 10.5

Row | SMILES | hERG current change (%, negative = inhibition) at 10uM [%]
25 | C=CCn1c(SCC(=O)c2c(N)n(CCC)c(=O)n(C)c2=O)nnc1-c1ccncc1 | 12.6
26 | CCN(CC)S(=O)(=O)c1ccc(C(=O)OC2CCCCC2CN(C)C)cc1 (centres unmarked) | -15.8
27 | Oc1ccccc1C1=Nc2ncnn2C(c2ccc(F)cc2)C1 (centres unmarked) | -80.8
28 | Cc1ccc(C(=O)C(OC(=O)c2cnccn2)c2ccccc2)cc1C (centres unmarked) | -27.4
29 | Cc1c(NC(=O)CN2CCN(c3ccc(O)cc3)CC2)c(=O)n(-c2ccccc2)n1C | 21
30 | O=S(=O)(Nc1cc(Cl)ccc1N1CCOCC1)c1ccccc1Cl | -10.1
31 | CCOc1ccc(Oc2ccccc2NC(=O)CCNC(C)=O)cc1 | 13.8
32 | C=C(C)C(=O)OCCCCCCOc1ccc(C(=O)O)cc1 | 15.1
33 | CC(C)C[C@H](NC(=O)c1[nH]cnc1C(=O)N[C@H](C)c1ccccc1)C(=O)OCc1ccccc1 | 29.9
34 | CCC(CC)C(=O)Nc1cccc(C(=O)N2CCOCC2)c1 | 2.17
35 | O=c1c2c(nc3cc(-c4ccc(F)cc4)[nH]n13)CCCC2 | -10.2
36 | CCOc1ccccc1-c1nnc(SCC(=O)NC2(C#N)CCCC2)o1 | -19.2
37 | COc1ccc(/C(C)=N/NC(=O)c2nnn(-c3nonc3N)c2-c2cccs2)cc1 | 12.2
38 | N=c1c(S(=O)(=O)c2ccc(Br)cc2)cc2c(=O)n3ccccc3nc2n1C1CCCC1 | 9.15
39 | CCN1CCCC(OC(=O)Nc2ccccc2)C1 (centres unmarked) | 2.47
40 | COc1ccc(N2CCN(C(=O)CCS(=O)(=O)c3cccc4nsnc34)CC2)cc1 | -23.9
41 | O=C(NN=C1CCCC1)c1ccccc1OCc1ccc(Cl)cc1 | -3.06
42 | Cc1ccc(S(=O)(=O)NNC(=O)C(O)(c2ccccc2C)c2ccccc2C)cc1 | -14.7
43 | CCc1nnc(NC(=O)CSc2nc3c(C)cccc3[nH]2)s1 | 0.952
44 | CCOc1ccccc1N(C(=O)c1snc(C(N)=O)c1N)C(C(=O)NC1CCCC1)c1cccs1 (centres unmarked) | -17.5
45 | O=C(COc1ccc(Cl)cc1)N1CCN(c2cccc(C(F)(F)F)c2)CC1 | -49.1
46 | C/C(Cl)=C\Cn1c(O)c(N=O)c2ccccc21 | -22
47 | COc1cc(/C=N/Nc2ccc(F)cc2F)cc(OC)c1O | -2.17
48 | COc1ccccc1C(=O)C1CCCN(C(=O)c2cccnc2SC)C1 (centres unmarked) | 15.2

Row | SMILES | hERG current change (%, negative = inhibition) at 10uM [%]
49 | O=S(=O)(c1cccc2cccnc12)N1CCN(Cc2ccc3c(c2)OCO3)CC1 | -7.81
50 | CCc1cc(=O)oc2c(C)c(OC(C)C(=O)NCCCN3CCOCC3)ccc12 (centres unmarked) | 3.21
51 | CC(Oc1ccccc1)C(=O)Nc1nnc(C2CCCCC2)s1 (centres unmarked) | -41.7
52 | COc1cccc(/C=N/NC(=O)C[n+]2ccccc2)c1O.[Cl-] | 6.33
53 | CCCCCCOC(=O)CCc1c(C)nc(N)[nH]c1=O | 2.82
54 | Cc1cccc(CC(=O)N2CCOCC2)c1 | 16.6
55 | COc1ccccc1-n1cn[nH]c1=S | 6.55
56 | CCc1ccc2c(COn3nnc4ccc(S(=O)(=O)N(C)C)cc43)cc(=O)oc2c1 | -30.2
57 | CC1(C)Cc2nc3sc4c(=O)[nH]cnc4c3cc2CS1 | 8.2
58 | Cc1nnc(SCC(=O)N2CCN(S(=O)(=O)c3ccccc3)CC2)[nH]c1=O | -5.2
59 | CNC(=O)CCc1ccc(OC)cc1 | 13.8
60 | O=C1COc2ccc3ccccc3c21 | -4.35
61 | O=C(CSCc1ccco1)N1CCc2ccccc21 | -6
62 | O=C(c1cc(S(=O)(=O)N2CCCCC2)ccc1F)N1CCCCC1 | -10.3
63 | COc1ccc(-c2noc(C3CCCN(C(=O)c4ccc(C)cc4)C3)n2)cc1 (centres unmarked) | -15.1
64 | COc1ccc(NC(=O)COC(=O)CNS(=O)(=O)c2ccc(F)c(F)c2F)cc1OC | 21.3
65 | CC1(C)CC(NC(=O)CC2CCCCC2)CC(C)(C)N1 | 12.1
66 | COC(=O)c1ccccc1NC(=O)N1CCN(c2ccc(F)cc2)CC1 | -32.7
67 | COc1cccc(C2CC(c3ccccc3Cl)n3nc(N)nc3N2)c1 (centres unmarked) | -9.01
68 | COc1cc(/C=N/NC(=O)c2cnccn2)ccc1O | -10.8
69 | Cc1ccsc1C(=O)Nc1n[nH]c(C(F)(F)F)n1 | 4.4
70 | Cc1ccc(C(=O)OCC(=O)Nc2cc(C(C)(C)C)no2)c(C)c1 | 6.04
71 | c1cncc(-c2cccnc2)c1 | 21.8
72 | C=CCn1c(N)c(S(=O)(=O)c2cccs2)c2nc3ccccc3nc21 | -1.18

Row | SMILES | hERG current change (%, negative = inhibition) at 10uM [%]
73 | Cc1ccc(/C=C/C(=O)Nc2ccc(S(=O)(=O)Nc3ncccn3)cc2)cc1 | 47.5
74 | Cc1c(O)ccc(C(=O)CN2CCN(c3ccc(F)cc3)CC2)c1O | 18.8
75 | CCOC(=O)Cc1c(C)nc2c(-c3ccccc3)c(C)nn2c1C | -22.6
76 | COc1cc(C=O)cc(Cl)c1OC(=O)N1CCOCC1 | 25.3
77 | COc1cc(OC)c(S(=O)(=O)Nc2ccccc2N2CCOCC2)cc1NC(C)=O | 4.13
78 | CN(Cc1ccccc1)c1ncnc2c1cnn2-c1ccccc1 | -4.87
79 | C=CC(=O)OCCOCCOCCOCCOC(=O)C=C | 15.9
80 | CCOc1ccccc1Oc1coc2cc(O)ccc2c1=O | -11.4
81 | Cc1ccccc1-c1cc(C(=O)NCC2CC2)n(CC2CC(c3cccnc3)=NO2)n1 (centres unmarked) | -20
82 | CC(=O)Nc1ccc(N2C(=O)CSC2c2ccc(F)cc2)cc1 (centres unmarked) | 3.08
83 | CC(C)(C)c1[nH]c2ccccc2c1/C=N/O | 11.4
84 | CC(NC(=O)c1cc(=O)[nH]c2ccccc12)c1ccccc1 (centres unmarked) | 8.8
85 | COC(=O)COc1ccsc1C(=O)OC | -6.53
86 | CCCCOC(=O)Cn1c(-c2ccccc2)nc2ccccc2c1=O | 14.3
87 | Cc1onc(NC(=O)c2ccc([N+](=O)[O-])o2)c1Br | 4.01
88 | O=C1N/C(=C\c2ccc(O)cc2)C(=O)c2ccccc21 | -1.53
89 | CCN(CC)CCNc1cc(C)nc2c1C(=O)C(=O)C=C2N1CCCCC1 | -0.139
90 | Cc1occc1C(=O)N1CCN(c2ncccn2)CC1 | 2.54
91 | CCN(c1ccc(C)cc1)S(=O)(=O)c1nnc(NC(=O)c2ccco2)s1 | 3.01
92 | O=C(c1ccc2c(c1)N(Cc1ccccc1)CCS2)N1CCCCC1 | -32.9
93 | COc1cccc(OCc2cc(C(=O)N(C)CCC3CCCCO3)no2)c1 (centres unmarked) | -2.94
94 | Cc1cc(S(=O)(=O)N2CCCCCC2)c(Cl)cc1Cl | 7.69
95 | CC(/C=N/Nc1nnc2c(n1)[nH]c1ccccc12)=C\c1ccco1 | 2.74
